{"source": "PubChem BioAssay AID1508642", "about": "(National Center for Advancing Translational Sciences (NCATS), 2021)", "note": "Among all 43,000 compounds or so, about 200 (0.47%) were called active. Inconclusive results (about 12%) are left out. The call rests on the fitted dose curve; in most records, active means well fitted cell-killing curve with a large enough effect; inconclusive means small, poorly fitted or top-dose-only effect, or effect the other way; inactive means flat fitted curve, though single readings scatter. The list shows a part of the results. On the % scale 0 is the no-effect control and ±100 the full control effect.", "data": [{"experiment": "Cell viability qHTS assay in S16 Pmp22-F2sN cells; further: nearly all actives have a fitted effect of over 65% in size", "settings": "S16 Pmp22-F2sN Schwann cells viability, CellTiter-Glo, 24 h; series mostly up to 57.5 µM; activity change, negative = cytotoxicity: at the top concentration", "how_it_was_run": "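Used to flag compounds lowering reporter output through toxicity, this quantitative HTS measures ATP-based CellTiter-Glo luminescence in S16 Pmp22-F2sN Schwann cells after 24 h compound exposure at 37C.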", "values": [{"smiles": "CCn1ccc2cc(S(=O)(=O)N3CCCN(C(=O)NCCOC)CC3)ccc21", "activity change, negative = cytotoxicity": "inactive: 13.3%"}, {"smiles": "CCc1ccccc1Nc1nc2ccccc2n2cnnc12", "activity change, negative = cytotoxicity": "inactive: -13%"}, {"smiles": "COc1ccc(CCNC(=O)CCn2c(=O)c3cccn3c3cccnc32)cc1OC", "activity change, negative = cytotoxicity": "inactive: 5.18%"}, {"smiles": "CCOc1cc(C(=O)N2CCC(c3ccncc3)CC2)cc(OCC)c1OCC", "activity change, negative = cytotoxicity": "inactive: 3.47%"}, {"smiles": "COc1ccc(Cl)cc1NC(=O)CSc1nc(-c2ccco2)cc(C(F)(F)F)n1", "activity change, negative = cytotoxicity": "inactive: -2.14%"}, {"smiles": "NC(=O)C1CCN(C(=O)Cn2c(-c3cccs3)cc3ccccc32)CC1", "activity change, negative = cytotoxicity": "inactive: -4.49%"}, {"smiles": "CCOc1ccc(NC(=O)CN2CCN(CC(=O)Nc3ccccc3OCC)CC2)cc1", "activity change, negative = cytotoxicity": "inactive: -15.4%"}, {"smiles": "COc1ccc(-c2oc3ncn4nc(-c5ccccc5C)nc4c3c2-c2ccc(OC)cc2)cc1", "activity change, negative = cytotoxicity": "inactive: -0.307%"}, {"smiles": "Cc1cccc(C)c1OC(=O)CSc1nnc(-c2cccs2)o1", "activity change, negative = cytotoxicity": "inactive: 1.71%"}, {"smiles": "COc1ccccc1-n1nc(-c2ccccc2)c2cnc3cc(C(F)(F)F)ccc3c21", "activity change, negative = cytotoxicity": "inactive: 27.4%"}, {"smiles": "CCOC(=O)c1ccc(NC(=O)COC(=O)c2cn(CC)c3nc(C)ccc3c2=O)cc1", "activity change, negative = cytotoxicity": "inactive: -4.7%"}, {"smiles": "CC1CN(S(=O)(=O)c2ccc3c(c2)NC(=O)CC(=O)N3)c2ccccc2O1", "note": "(configuration not stated)", "activity change, negative = cytotoxicity": "inactive: -11.1%"}, {"smiles": "O=c1cc(-c2ccccc2)n2c(SCc3cccc([N+](=O)[O-])c3)nnc2[nH]1", "activity change, negative = cytotoxicity": "inactive: -0.183%"}, {"smiles": "CCOC(=O)CN1C(=O)c2cccnc2Oc2ccccc21", "activity change, negative = cytotoxicity": "inactive: 11.1%"}, {"smiles": "O=C(CCCn1c(=O)c2sccc2n(Cc2cccc(Cl)c2)c1=O)NCc1ccc2c(c1)OCO2", "activity change, negative = cytotoxicity": "inactive: 12.1%"}, {"smiles": "Cc1cc(C)cc(NC(=O)CSCc2cc(=O)c3ccc(C)c(C)c3[nH]2)c1", "activity change, negative = cytotoxicity": "inactive: 5.69%"}, {"smiles": "CNS(=O)(=O)c1cn(CC(=O)N2CCN(c3cc(C)ccc3C)CC2)cc1S(=O)(=O)NC", "activity change, negative = cytotoxicity": "inactive: -7.99%"}, {"smiles": "Cc1nn2c(C)c(C(=O)NCC(C)c3ccccc3)cnc2c1-c1ccccc1", "note": "(configuration not stated)", "activity change, negative = cytotoxicity": "inactive: 1.42%"}, {"smiles": "O=C(Nc1c2c(nn1-c1ccc(Cl)cc1)CS(=O)(=O)C2)c1ccccc1F", "activity change, negative = cytotoxicity": "inactive: -1.93%"}, {"smiles": "O=C(NCCc1nc2ccccc2n1CCCOc1ccc(Cl)cc1)C1CCCCC1", "activity change, negative = cytotoxicity": "inactive: -29.7%"}, {"smiles": "COc1ccc(C2NC(=O)N(C)C3=C2C(=O)N(c2ccc(F)cc2)C3)cc1", "note": "(configuration not stated)", "activity change, negative = cytotoxicity": "inactive: -10%"}, {"smiles": "Fc1ccc(Cn2c(-c3cccc(Br)c3)nc3ccccc32)cc1", "activity change, negative = cytotoxicity": "inactive: 2.37%"}, {"smiles": "CCOc1ccc(CCNC(=O)Cn2nc(CC)n3c(cc4sccc43)c2=O)cc1", "activity change, negative = cytotoxicity": "inactive: 5.61%"}, {"smiles": "CCC(C(=O)NCc1ccccc1Cl)n1nc(C)c2sc3ccccc3c2c1=O", "note": "(configuration not stated)", "activity change, negative = cytotoxicity": "inactive: 0.824%"}, {"smiles": "Cc1ccc(NC(=O)c2sc(-n3nc(C)c(Cc4ccc5c(c4)OCO5)c3C)nc2C)cc1C", "activity change, negative = cytotoxicity": "inactive: 0.716%"}, {"smiles": "CCOc1cc(C2c3c(-c4ccccc4O)n[nH]c3C(=O)N2Cc2cccnc2)ccc1O", "note": "(configuration not stated)", "activity change, negative = cytotoxicity": "inactive: -17.2%"}, {"smiles": "Cc1cccc(NC(=O)CSc2nccn2-c2cccc(Cl)c2)c1C", "activity change, negative = cytotoxicity": "inactive: 2.13%"}]}]}
